Data taken from the supplement of paper PMC10126150.
Values marked as one replicate rest on one cluster of the flow cell; about a third of the high ones do not repeat.

Tested on: ATP
Test: switch fluorescence ratio, 500 uM ATP over buffer (Cy3 cluster intensity, sum of 5 cycles each) (fold (ratio)); higher = stronger signal-on switching upon ATP binding; sequences stand for … in TCGTCGGCAGCGTCAGATGTGTATAAGAGACAGTTTTTTTTTTTTTTTTTTTTTTTTT…TC
Conditions: aptamer strand: ATP DNA aptamer (quencher-CACCTGGGGGAGTATTGCGGAGGAAGG + anchor), 100 nM annealed; ATP concentration: 500 uM; one replicate
In short: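 Clusters carrying Cy3-labelled switching strands on a modified Illumina MiSeq flow-cell were annealed to 100 nM quencher-labelled ATP aptamer and imaged in selection buffer. They were imaged again after 15 min with 500 uM ATP at 22 °C, over five buffer/ATP cycles with NaOH stripping and re-annealing in between. For each cluster, the fluorescence ratio is the summed Cy3 intensity of the target cycles divided by that of the buffer cycles, averaged per switch-domain sequence. Clusters outside 100-1000 RFU were left out.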
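Further: ATP exposure 15 min at 22 °C before imaging.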

Sequence	switch fluorescence ratio
CATAGTCACG	0.983
GTAACCATCA	1.06
TGGGTGGCTA	1
GATAAATTTA	0.99
CTCAAAACC	1.09
ACTCGCTGCC	1.2
GATGTATCGA	0.976
GATAGATCTC	0.984
TGCACGACAA	1.16
GGTCAGGCAA	1.06
AGCTTGAGCT	1.02
CACCTACACT	0.977
CCGAACACGT	1.07
AATTAGTCTG	0.983
AGCTGGGCAC	1
ACAGCCTTAA	0.981
CTATCTTATT	0.986
TCCCCCAAGG	1.27
CCGGCAAAA	1.3
ACTTAGTAGG	0.992
AATGTGGGTT	1
CGGCGGTATG	0.945
GACTGGGGCG	1.2
CTAAAAGCCC	1.48
TCTATCGGGT	0.964
TCCCATGGTT	1.05

Sequence	switch fluorescence ratio
ACCATAGTCG	1.01
TATCCTGTTG	1
GAGTCTGGTA	1.02
AGGCAATGGG	1.04
CGGTGTCTGA	1.02
GTAAGGCTGC	0.866
ATGGTGCGCG	1.01
GACTTCAAAA	1.01
CGTGGGCTTG	0.975
TACGCATAA	2.27
TCTTACTCGG	1.12
ACGTTGGTC	1.07
GAGTGCTAGG	1.02
TATTGTAGAC	0.928
ATCGGTAAGA	0.987
CGTGATTGGG	0.983
GCATCAAACA	1
GTGTGGGGTC	1.05
AACCTTAAAA	1.05
TACGCGCACT	1.16
GAATTATCTT	1.03
ATAGACGGTG	0.959
CCGAGGGA	1.17
TGCGCTCGGC	1.01
CATTATTTT	0.979
TTTTGCTAAT	0.976

Sequence	switch fluorescence ratio
GTGATAATA	1.02
GGAGCTCTTC	1.1
ATGCCTAAAA	1
TGGTTCGGTC	1.09
TAAACAGCGA	1.03
GCTAGAGCAA	1.1
CGAGCGGCA	1.04
GGCACATTTG	1.04
AGGGGCCTTT	1
GTGGTGAGAT	0.982
CTCCGTAGGC	1.01
TTACTGTCCG	1.02
TGAAGGGCAG	0.997
GCGTCAGAGC	0.99
TTTTTCTCCT	1.04
TAGAGTTGGA	0.994
TCCGGATCGC	1.32
TCAATATCTT	0.938
TTGTCTGCAT	1.12
CGATAACAAC	1.08
ATTTCCTC	1.09
GTCAAAATTA	0.993
CCTGGGAACA	1.02
ATTGATACAC	1.07
ATTCAAGTGT	1.06
AAGTACTTAA	1.01

Sequence	switch fluorescence ratio
TTTTGCTCCT	1.02
AGGACCCAAT	1.04
TTAAGTGAG	1
TCTAGATA	1
CTTGCAAACA	1.08
CACGAGAGG	0.996
TGCGCTTTCG	1.01
TTTGCTGATG	0.969
ATGGCCCCGG	0.997
CTTCAACCGA	1.3
CTTATTGGTC	0.999
GTAGACTTAG	0.984
GGGGAGTACG	0.999
GAAGGTAAAA	0.961
TAATAGCGAC	1.06
GGTCCATTGG	1
GGGACAAGAG	1.02
GATCTAATGC	1.11
GATAGGTCC	1.1
TGGCTAGTAC	1.14
TTTTATGGCC	1.02
AATCGCCGTT	0.997
GGGGCAGTGG	0.968
CCATCCTACA	1.08
CTAGCATGG	1.05
ATAGGTAGCT	0.992

Sequence	switch fluorescence ratio
ATCAACGGAG	1.01
GGTTGGTCTG	0.987
CAGGTGACAC	1.02
AAAACTGTTA	0.996
TCTGTTTACC	1
GTCACC	1.02
CACGACTCTT	0.99
GCCTGAGGAC	1.04
CAAATTAGTG	0.972
ATCTGAGGGT	0.976
TAACCTTACT	1.09
TGGTTAAGTC	1.03
AGTTCGCGG	0.971
TGTTATACCC	1.03
GGGTTATGAC	1.05
CACACTCGAA	1.04
GTTAGCGAAT	1
AAGCCTTGGA	0.994
TGAAAGGAAA	1.07
CTCCGTGCGT	2.21
CTTGGATTGG	0.992
CAACTGGCAC	1.13
CGTTTGCTCC	1.1
TGACGTAAGC	1.29
CCATTTGGTC	0.985
GCATGGGG	1.02

Sequence	switch fluorescence ratio
CATCCAGGAG	1.79
ACATACTCTA	1.4
GTGTGAACG	1
TTGGTCGACG	0.987
CCAGCATGTT	1.05
ACCTTGGGTC	0.982
GATCTACCAG	1
TCATTGAAA	1.02
GGCCAAGGTT	0.98
GGGATGAT	1
AGGGGTCATT	1
GTCGCACGGC	0.962
TCTGATGTT	1.02
GCACCGTATT	1.15
TCCCGTGGCG	1.02
CTGTGTACGC	1.01
CCGATTGAAG	1.09
AGATAAGGGG	0.996
AGCGACGTCA	1.01
AACTGTCCTA	1.03
ATACTCGCT	1
ATCCGTCGCG	1.02
GTAGTACAGC	0.97
TTTTTAGCAG	1.03
TGCCACGAGG	1.04
TAATGTGTAT	0.935

Sequence	switch fluorescence ratio
CGAGTTTGAT	1.03
CAGCCTTTCC	2.09
GCTGCAAGG	1.04
AGAGGGCCA	0.938
TGACCGTGAG	1
GAGAAGGCTA	1
GATTCCGACT	1.15
TTTTCTGAG	0.957
ACGTGAGGGC	1.03
CTTGCTACAA	1.08
CTTAGACCGT	0.989
ACACCGGATT	0.989
GTGGGGTAAT	0.953
GTTCTTTTTG	0.992
GAACGTTTCT	1
GGGCGGGAAT	0.946
GCTTCCTTAT	1.12
TCCAATCGGA	1
AACTTAGGAG	1.01
TTTGTTCAAC	0.983
GTTTGATTGC	0.977
GCTCGATTTT	1.02
ACAGCTTCGG	1
TCAAGTTTA	1.01
GGTGCGTGTC	1.11
TAAGGTCTCC	0.991

Sequence	switch fluorescence ratio
ACAGACATCA	1.06
GAAGATCAGC	0.935
TCAGCTGGGT	1.03
AAAAAAATCT	1.03
AATTAGGCAT	1.03
GGAGTCAGCA	1.06
GCAAACGTCT	1.05
TGTTCGCTCA	0.993
AACAGTCGTC	1
GTCGCCCATA	1.01
TTACCGTCTA	1.09
CCGCGTAGGG	1.14
GTATTAGGTA	1.01
CAATCAGTGG	0.955
AAAGTGTCGG	1.06
AGAAGAAAG	1.02
TTATGTAATG	1.01
AGGCAGAGGT	0.984
TGTGTACCCA	0.989
